Measurements as given in US20260116990A1 (KEY2BRAIN, published 2026).
Positions count from the first letter of the chain named.

T1: His-tagged ectodomain of cynomolgus transferrin receptor 1 (cTfR1, R121-F760) (cynomolgus, UniProt Q5RDH6 121-760 (Pongo abelii entry))
T1 construct: also called cynomolgus TfR1
T1 chain: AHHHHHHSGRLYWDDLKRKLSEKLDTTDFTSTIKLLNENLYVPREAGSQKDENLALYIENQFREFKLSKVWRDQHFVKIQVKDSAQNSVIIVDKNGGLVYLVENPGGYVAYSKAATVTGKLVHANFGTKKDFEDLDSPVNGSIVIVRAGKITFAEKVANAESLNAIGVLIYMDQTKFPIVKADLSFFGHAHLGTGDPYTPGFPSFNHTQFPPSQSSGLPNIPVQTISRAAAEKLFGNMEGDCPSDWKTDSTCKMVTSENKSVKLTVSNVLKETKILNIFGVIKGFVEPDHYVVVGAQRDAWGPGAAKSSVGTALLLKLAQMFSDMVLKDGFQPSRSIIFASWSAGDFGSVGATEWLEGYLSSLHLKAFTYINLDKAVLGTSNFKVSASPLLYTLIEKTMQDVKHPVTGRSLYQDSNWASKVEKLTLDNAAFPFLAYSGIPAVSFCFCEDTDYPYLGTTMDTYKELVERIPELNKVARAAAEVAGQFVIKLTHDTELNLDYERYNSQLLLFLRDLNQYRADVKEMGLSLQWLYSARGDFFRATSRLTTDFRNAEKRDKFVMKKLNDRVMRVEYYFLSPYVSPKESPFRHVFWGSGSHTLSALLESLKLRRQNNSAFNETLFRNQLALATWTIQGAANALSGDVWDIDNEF

B1: KB_B01 Fc fusion (KB_B01, GG spacer, human IgG1 Fc) (Fc fusion)
chain: QVQLQESGGGLVQAGGSLRLSCAASGTPFSNNYMRWYRQAPGKQREWVAGFTSGGSTNYADSVKGRFTISRDNAEGTVYLQMDNLKPEDTAVYYCYFLDVWGQGTQVTVSSGG[letters of human IgG1 Fc not shown]
notes: Bivalent dimer made in Expi293 cells
B2: Benchmark VHH of WO 2020/144233 fused to human IgG1 Fc (BV-Fc) (Fc fusion)
chain: EVQLVESGGGVVQPGGSLKLSCVASGTDFSINFIRWYRQAPGKQREFVAGFTATGNTNYADSMKGRFTISRDNTKNAVYLQIDSLKPEDTAVYYCYMLDKWGQGTQVTVSSGG[letters of human IgG1 Fc not shown]
notes: also called benchmark BV
B3: KB_B05 Fc fusion (Fc fusion)
chain: QVQLQESGGGLVQAGGSLRLSCVASGTDFSMNYMRWYRQAPGKQREWVAGFTSTGSTNYPDSMKGRFTISRDNAKNTVYLQMDSLKPEDTAVYYCHFLGDWGQGTQVTVSSGG[letters of human IgG1 Fc not shown]
notes: Dimeric VHH-GG-human IgG1 Fc
B4: KB_B04 Fc fusion (Fc fusion)
chain: B3 chain with V23A, A24L, T54S, S56N, M63V, H96Y, G99D, D100N
notes: Dimeric VHH-GG-human IgG1 Fc
B5: KB_B06 Fc fusion (Fc fusion)
chain: B3 chain with A14T, A24V, M31L, M34L, K43N, S53A, S70G
notes: Dimeric VHH-GG-human IgG1 Fc
B6: KB_B07 Fc fusion (Fc fusion)
chain: B3 chain with A14T, A24V, M31L, M34L, S53A, T54S, S70G, K86T
notes: Dimeric VHH-GG-human IgG1 Fc
B7: KB_B03 Fc fusion (Fc fusion)
chain: B3 chain with V23A, M31L, S53T, T54H, S56D, P60A, Y94F, H96Y, G99D, D100N
notes: Dimeric VHH-GG-human IgG1 Fc
B8: KB_B09 Fc fusion (Fc fusion)
chain: QVQLQESGGGLVQVGGSLRLSCAASDSAFSMNTMYWYRQAPGKQREFVAYIVSDDNTRYADSVKGRFTISRDNAKNTVYLQMNSLKPEDTAVYYCKGDVVWGQGTQVTVSSGG[letters of human IgG1 Fc not shown]
notes: Dimeric VHH-GG-human IgG1 Fc
B9: KB_B10 Fc fusion (Fc fusion)
chain: B8 chain with S30N, Q44S, Y50W, R58Q, S84N, A91G
notes: Dimeric VHH-GG-human IgG1 Fc
B10: KB_B08 Fc fusion (Fc fusion)
chain: QVQLQESGRGVVQAGGSLRLSCAASGNRFGIEYMRWYRQAPGKQREFVAGFTSAGSTNYGDSVKGRFTISRDNAKNTVYLQMDSLIPEDTAVYYCHYLGDWGQGTQVTVSSGG[letters of human IgG1 Fc not shown]
notes: Dimeric VHH-GG-human IgG1 Fc
B11: KB_B02 Fc fusion (Fc fusion)
chain: B1 chain with A23T, S30T, G54A, S56N
notes: Dimeric VHH-GG-human IgG1 Fc

target: T2, His-tagged ectodomain of human transferrin receptor 1 (hTfR1, R121-F760) (human, UniProt P02786 fragment); assay: SPR; binder on protein A chip, hTfR1 as analyte, with and without 250 nM hTf
T2 construct: Made in CHO cells; Biotinylated for some uses; also called human TfR1

Row | fold drop in affinity with 250 nM hTf versus without hTf | Binder
1 | 10 fold | B1
2 | ~390 fold | B2

target: T2, His-tagged ectodomain of human …; assay: SPR Biacore T200; binder on protein A chip, TfR1 ectodomain as analyte

Row | Kd | koff | kon | Binder
3 | 176 pM | 9.67e-05 s⁻¹ | 550000 M⁻¹ s⁻¹ | B1
4 | 2.28 pM | 1.26e-06 s⁻¹ | 551000 M⁻¹ s⁻¹ | B2

Target: T1, His-tagged ectodomain of cynomolgus …
Assay: as above

Row | koff | kon | Kd | Binder
5 | 8.18e-05 s⁻¹ | 765000 M⁻¹ s⁻¹ |  | B1
6 | 2.61e-07 s⁻¹ | 191000 M⁻¹ s⁻¹ | 1.36 pM | B2

target: T3, His-tagged ectodomain of mouse transferrin receptor 1 (mTfR1, S122-F763) (mouse, UniProt Q62351 fragment); assay: as above
T3 construct: also called mouse TfR1
T3 sequence (Q62351 other isoform, or with tags, fused parts or gaps limits assumed): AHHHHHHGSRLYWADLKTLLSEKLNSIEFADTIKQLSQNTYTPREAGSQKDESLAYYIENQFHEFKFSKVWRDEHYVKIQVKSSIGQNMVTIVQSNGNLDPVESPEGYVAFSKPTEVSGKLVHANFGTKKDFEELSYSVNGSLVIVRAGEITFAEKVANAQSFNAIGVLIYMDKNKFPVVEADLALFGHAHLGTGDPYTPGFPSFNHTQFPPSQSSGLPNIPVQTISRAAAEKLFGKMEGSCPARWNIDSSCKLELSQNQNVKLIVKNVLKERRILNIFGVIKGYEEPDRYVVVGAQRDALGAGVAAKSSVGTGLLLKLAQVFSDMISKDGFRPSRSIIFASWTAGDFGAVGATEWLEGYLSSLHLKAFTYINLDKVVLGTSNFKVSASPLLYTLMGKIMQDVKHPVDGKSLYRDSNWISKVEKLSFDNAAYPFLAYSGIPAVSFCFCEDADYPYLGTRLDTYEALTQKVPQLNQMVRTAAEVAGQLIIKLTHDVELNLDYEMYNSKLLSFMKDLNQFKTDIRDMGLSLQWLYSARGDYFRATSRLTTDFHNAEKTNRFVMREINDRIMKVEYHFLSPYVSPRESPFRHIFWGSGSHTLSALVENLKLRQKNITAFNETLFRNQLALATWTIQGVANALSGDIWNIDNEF

Row | Kd | koff | kon | Binder
7 | 2820 pM | 0.0235 s⁻¹ | 8.35e+06 M⁻¹ s⁻¹ | B1
8 | 444 pM | 0.00017 s⁻¹ | 382000 M⁻¹ s⁻¹ | B2

target: T2, His-tagged ectodomain of human …; assay: SPR; binder on protein A chip, hTfR1 as analyte, without hTf

Row | Kd | koff | kon | Binder
9 | 66.7 pM | 4.34e-05 s⁻¹ | 651000 M⁻¹ s⁻¹ | B1
10 | 0.531 pM | 2.86e-07 s⁻¹ | 538000 M⁻¹ s⁻¹ | B2

target: T2, His-tagged ectodomain of human …; assay: SPR Biacore 8K single-cycle; VHH-Fc on protein A chip, TfR1 ectodomain as analyte

Row | Kd | koff | kon | Binder
11 | 14.1 pM | 3.48e-06 s⁻¹ | 247000 M⁻¹ s⁻¹ | B3
12 | 4.95 pM | 1.16e-06 s⁻¹ | 234000 M⁻¹ s⁻¹ | B4
13 | 15.3 pM | 3.79e-06 s⁻¹ | 247000 M⁻¹ s⁻¹ | B5
14 | 18.4 pM | 4.48e-06 s⁻¹ | 243000 M⁻¹ s⁻¹ | B6
15 | 70.1 pM | 2.13e-05 s⁻¹ | 303000 M⁻¹ s⁻¹ | B7
16 | 34.7 pM | 7.53e-07 s⁻¹ | 21700 M⁻¹ s⁻¹ | B8
17 | < 3.09 pM | < 1e-07 s⁻¹ | 32300 M⁻¹ s⁻¹ | B9
18 | 451 pM | 7.09e-05 s⁻¹ | 157000 M⁻¹ s⁻¹ | B10
19 | 206 pM | 4.03e-05 s⁻¹ | 196000 M⁻¹ s⁻¹ | B11

target: T3, His-tagged ectodomain of mouse …; assay: as above

Row | Kd | koff | kon | Binder
20 | 83700 pM | 69.9 s⁻¹ | 8.35e+08 M⁻¹ s⁻¹ | B3
21 | 4190 pM | 0.000388 s⁻¹ | 92800 M⁻¹ s⁻¹ | B4
22 | 89700 pM | 58.5 s⁻¹ | 6.53e+08 M⁻¹ s⁻¹ | B5
23 | 67800 pM | 47.9 s⁻¹ | 7.07e+08 M⁻¹ s⁻¹ | B6
24 | 679 pM | 4.58e-05 s⁻¹ | 67500 M⁻¹ s⁻¹ | B7
25 | 13000 pM | 0.000104 s⁻¹ | 7980 M⁻¹ s⁻¹ | B8
26 | < 17.1 pM | < 1e-07 s⁻¹ | 5830 M⁻¹ s⁻¹ | B9
27 | 116000 pM | 53.4 s⁻¹ | 4.58e+08 M⁻¹ s⁻¹ | B10
28 | 2610 pM | 0.000211 s⁻¹ | 80900 M⁻¹ s⁻¹ | B11

target: T3, His-tagged ectodomain of mouse …; assay: SPR; binder on protein A chip, mTfR1 as analyte

Row | fold lower affinity than BV-Fc | Binder
29 | 6.4 fold | B1

target: T2, His-tagged ectodomain of human …; assay: SPR; binder on protein A chip, hTfR1 as analyte

Row | fold higher affinity than free monomeric KB_B01 | Binder
30 | 19 fold | B1

target: T2, His-tagged ectodomain of human …; assay: SPR; binder on protein A chip, hTfR1 as analyte, in presence of 250 nM hTf

Row | Kd | koff | kon | Binder
31 | 664 pM | 0.000101 s⁻¹ | 152000 M⁻¹ s⁻¹ | B1
32 | 207 pM | 0.000113 s⁻¹ | 549000 M⁻¹ s⁻¹ | B2
